We go through three molecules from patent US20240141042A1 (INNATE PHARMA, published 2024).

Assay [1] concerns the target T1, Human NKp46 recombinant proteins (human, UniProt O76036 22-258).
T1 construct: also called recombinant human NKp46 proteins
T1 sequence: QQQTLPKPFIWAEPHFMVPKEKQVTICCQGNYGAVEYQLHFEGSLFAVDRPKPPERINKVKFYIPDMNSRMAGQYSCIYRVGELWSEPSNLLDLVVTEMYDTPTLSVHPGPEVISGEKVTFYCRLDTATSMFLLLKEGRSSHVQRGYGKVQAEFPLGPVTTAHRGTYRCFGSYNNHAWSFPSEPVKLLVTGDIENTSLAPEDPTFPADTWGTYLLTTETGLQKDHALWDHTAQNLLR
The experiment in a line: SPR, bispecific captured on Protein-A chip, human NKp46 injected, 1:1 kinetic model. Here is the method:
SPR measurements were performed on a Biacore T100 apparatus (Biacore GE Healthcare) at 25° C. In all Biacore experiments HBS-EP+(Biacore GE Healthcare) and NaOH 10 mM served as running buffer and regeneration buffer respectively. Sensorgrams were analyzed with Biacore T100 Evaluation software. Protein-A was purchase from (GE Healthcare). Human NKp46 recombinant proteins were cloned, produced and purified at Innate Pharma.
Protein-A proteins were immobilized covalently to carboxyl groups in the dextran layer on a Sensor Chip CM5. The chip surface was activated with EDC/NHS (N-ethyl-N′-(3-dimethylaminopropyl) carbodiimidehydrochloride and N-hydroxysuccinimide (Biacore GE Healthcare)). Protein-A was diluted to 10 μg/ml in coupling buffer (10 mM acetate, pH 5.6) and injected until the appropriate immobilization level was reached (i.e. 2000 RU). Deactivation of the remaining activated groups was performed using 100 mM ethanolamine pH 8 (Biacore GE Healthcare).
Monovalent affinity study was done following a regular Capture-Kinetic protocol recommended by the manufacturer (Biacore GE Healthcare kinetic wizard). Seven serial dilutions of human NKp46 recombinant proteins, ranging from 6.25 to 400 nM were sequentially injected over the captured Bi-Specific antibodies and allowed to dissociate for 10 min before regeneration. The entire sensorgram sets were fitted using the 1:1 kinetic binding model.
For orientation: In SPR one partner is held on a chip, and binding of the other changes the refractive index at the surface.

The target in assay [2] is T2, human FcRn (Example 10) (human, UniProt P55899 fragment; P61769 fragment, limits assumed).
T2 construct: Construct not described; Beta-2-microglobulin is not mentioned; also called recombinant FcRn proteins
The experiment in a line: SPR, FcRn immobilized on CM5, SCK/Two state reaction. Here is the method:
SPR measurements were performed on a Biacore T100 apparatus (Biacore GE Healthcare) at 25° C. In all Biacore experiments Acetate Buffer (50 mM Acetate pH5.6, 150 mM NaCl, 0.1% surfactant p20) and HBS-EP+ (Biacore GE Healthcare) served as running buffer and regeneration buffer respectively. Sensorgrams were analyzed with Biacore T100 Evaluation software. Recombinant mouse FcRn was purchase from R&D Systems.
Recombinant FcRn proteins were immobilized covalently to carboxyl groups in the dextran layer on a Sensor Chip CM5. The chip surface was activated with EDC/NHS (N-ethyl-N′-(3-dimethylaminopropyl) carbodiimidehydrochloride and N-hydroxysuccinimide (Biacore GE Healthcare)). FcRn proteins were diluted to 10 μg/ml in coupling buffer (10 mM acetate, pH 5.6) and injected until the appropriate immobilization level was reached (i.e. 2500 RU). Deactivation of the remaining activated groups was performed using 100 mM ethanolamine pH 8 (Biacore GE Healthcare).

The target of assay [3] is T2, human FcRn (Example 10). Description: SPR, FcRn immobilized on CM5, Steady State.
T2 sequence (P55899 24-297 limits assumed, form in doubt, chain 1 of 2): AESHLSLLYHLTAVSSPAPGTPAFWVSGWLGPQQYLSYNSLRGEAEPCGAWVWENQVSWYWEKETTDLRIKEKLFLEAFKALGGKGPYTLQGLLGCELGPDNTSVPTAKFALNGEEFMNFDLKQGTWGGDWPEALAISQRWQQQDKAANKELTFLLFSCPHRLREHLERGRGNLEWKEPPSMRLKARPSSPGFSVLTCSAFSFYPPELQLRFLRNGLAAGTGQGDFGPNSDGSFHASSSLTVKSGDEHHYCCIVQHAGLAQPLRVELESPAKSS
T2 sequence (P61769 21-119 limits assumed, form in doubt, chain 2 of 2, further chain): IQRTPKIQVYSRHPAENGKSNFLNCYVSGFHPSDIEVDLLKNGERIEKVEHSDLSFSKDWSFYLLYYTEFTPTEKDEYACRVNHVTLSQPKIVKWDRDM

B1: CD19-F13-NKp46-3 (bispecific antibody, human IgG1, kappa)
chain 1: QVQLQQSGAELVRPGSSVKISCKASGYAFSSYWMNWVKQRPGQGLEWIGQIWPGDGDTNYNGKFKGKATLTADESSSTAYMQLSSLASEDSAVYFCARRETTTVGRYYYAMDYWGQGTTVTVSSASTKGPSVFPLAPSSKSTSGGTAALGCLVKDYFPEPVTVSWNSGALTSGVHTFPAVLQSSGLYSLSSVVTVPSSSLGTQTYICNVNHKPSNTKVDKRV[sequence of human IgG1 Fc not given]TGSEVQLQQSGPELVKPGASVKISCKTSGYTFTEYTMHWVKQSHGKSLEWIGGISPNIGGTSYNQKFKGKATLTVDKSSSTAYMELRSLTSEDSAVYYCARRGGSFDYWGQGTTLTVSSVEGGSGGSGGSGGSGGVDDIVMTQSPATLSVTPGDRVSLSCRASQSISDYLHWYQQKSHESPRLLIKYASQSISGIPSRFSGSGSGSDFTLSINSVEPEDVGVYYCQNGHSFPLTFGAGTKLELK
chain 2: DIQLTQSPASLAVSLGQRATISCKASQSVDYDGDSYLNWYQQIPGQPPKLLIYDASNLVSGIPPRFSGSGSGTDFTLNIHPVEKVDAATYHCQQSTEDPWTFGGGTKLEIKRTVAAPSVFIFPPSDEQLKSGTASVVCLLNNFYPREAKVQWKVDNALQSGNSQESVTEQDSKDSTYSLSSTLTLSKADYEKHKVYACEVTHQGLSSPVTKSFNRGE[sequence of human IgG1 Fc not given]
notes: Heterodimer with dimeric Fc: first chain 179, second chain 178; copies: 1 + 1
As to B1, in assay [1], the Kd amounted to 68 nM, the koff turned out to be 0.00565 s⁻¹ and the kon turned out to be 83000 M⁻¹ s⁻¹.

B2: CD19-F14-NKp46-3 (bispecific antibody, human IgG1, kappa)
chain 1: QVQLQQSGAELVRPGSSVKISCKASGYAFSSYWMNWVKQRPGQGLEWIGQIWPGDGDTNYNGKFKGKATLTADESSSTAYMQLSSLASEDSAVYFCARRETTTVGRYYYAMDYWGQGTTVTVSSASTKGPSVFPLAPSSKSTSGGTAALGCLVKDYFPEPVTVSWNSGALTSGVHTFPAVLQSSGLYSLSSVVTVPSSSLGTQTYICNVNHKPSNTKVDKRV[sequence of human IgG1 Fc with N297S (EU numbers) not given]TGSEVQLQQSGPELVKPGASVKISCKTSGYTFTEYTMHWVKQSHGKSLEWIGGISPNIGGTSYNQKFKGKATLTVDKSSSTAYMELRSLTSEDSAVYYCARRGGSFDYWGQGTTLTVSSVEGGSGGSGGSGGSGGVDDIVMTQSPATLSVTPGDRVSLSCRASQSISDYLHWYQQKSHESPRLLIKYASQSISGIPSRFSGSGSGSDFTLSINSVEPEDVGVYYCQNGHSFPLTFGAGTKLELK
chain 2: DIQLTQSPASLAVSLGQRATISCKASQSVDYDGDSYLNWYQQIPGQPPKLLIYDASNLVSGIPPRFSGSGSGTDFTLNIHPVEKVDAATYHCQQSTEDPWTFGGGTKLEIKRTVAAPSVFIFPPSDEQLKSGTASVVCLLNNFYPREAKVQWKVDNALQSGNSQESVTEQDSKDSTYSLSSTLTLSKADYEKHKVYACEVTHQGLSSPVTKSFNRGE[sequence of human IgG1 Fc with N297S (EU numbers) not given]
notes: As F13 but with N297S: first chain 181, second chain 180; copies: 1 + 1
The molecule B2 returned a Kd with human FcRn (Example 10) [2] of 14 nM. Further, in assay [1], the Kd was found to be 62 nM, the koff was 0.00546 s⁻¹ and the kon worked out at 88300 M⁻¹ s⁻¹.

B3: CD19-F10A-NKp46-3 (bispecific antibody, human IgG1, kappa)
chain 1: QVQLQQSGAELVRPGSSVKISCKASGYAFSSYWMNWVKQRPGQGLEWIGQIWPGDGDTNYNGKFKGKATLTADESSSTAYMQLSSLASEDSAVYFCARRETTTVGRYYYAMDYWGQGTTVTVSSASTKGPSVFPLAPSSKSTSGGTAALGCLVKDYFPEPVTVSWNSGALTSGVHTFPAVLQSSGLYSLSSVVTVPSSSLGTQTYICNVNHKPSNTKVDKRV[sequence of human IgG1 Fc with N297S (EU numbers) not given]GGGSGGGGSGGGGSGQPREPQVYTLPPSREEMTKNQVSLTCLVKGFYPSDIAVEWESNGQPENNYKTTPPVLDSDGSFFLYSKLTVDKSRWQQGNVFSCSVMHEALHNHYTQKSLSLSPGSTGSEVQLQQSGPELVKPGASVKISCKTSGYTFTEYTMHWVKQSHGKSLEWIGGISPNIGGTSYNQKFKGKATLTVDKSSSTAYMELRSLTSEDSAVYYCARRGGSFDYWGQGTTLTVSSVEGGSGGSGGSGGSGGVDDIVMTQSPATLSVTPGDRVSLSCRASQSISDYLHWYQQKSHESPRLLIKYASQSISGIPSRFSGSGSGSDFTLSINSVEPEDVGVYYCQNGHSFPLTFGAGTKLELK
chain 2: DIQLTQSPASLAVSLGQRATISCKASQSVDYDGDSYLNWYQQIPGQPPKLLIYDASNLVSGIPPRFSGSGSGTDFTLNIHPVEKVDAATYHCQQSTEDPWTFGGGTKLEIKRTVAAPSVFIFPPSDEQLKSGTASVVCLLNNFYPREAKVQWKVDNALQSGNSQESVTEQDSKDSTYSLSSTLTLSKADYEKHKVYACEVTHQGLSSPVTKSFNRGEC
notes: Heterodimer: first chain 157, second chain 156
In turn, B3 yielded a Kd in the assay with human FcRn (Example 10) [3] of 433 nM. For the same molecule, in assay [1], the Kd amounted to 29 nM, the koff was 0.00754 s⁻¹ and the kon was determined as 261000 M⁻¹ s⁻¹.

Usually Kd stands for a measure of binding affinity in units of concentration. By koff is commonly meant the rate constant with which the complex falls apart. A word on the kon: it is a measure of how fast the partners come together.
